Results are given in words; binding and its absence hold for the method and conditions named. Some binding calls cover weakened binding; strength is not graded here. Where a sequence is shown, tags or fusion partners need not be part of it. Values belong to the binder of their own block, whether it stands above or below them.
How the values were obtained:
[1] = target: wild-type full-length ASC (M2H fusion) (human) (UniProt Q9ULZ3); experiment: two-hybrid; mammalian two-hybrid (Checkmate, Promega), pACT (VP16 AD) and pBIND (GAL4 BD) with pG5luc in HEK293T cells, firefly luciferase normalised to Renilla, 48 h
[2] = target: ASC^CARD (M2H fusion) (human) (UniProt Q9ULZ3); experiment: as above
[3] = target: ASC^CARD N128A/E130R (Y2H construct) (human) (UniProt Q9ULZ3); experiment: two-hybrid; yeast two-hybrid (GAL4 Matchmaker), pGBK-T7 and pGAD-T7 in S. cerevisiae AH109, growth on -His/-Leu/-Trp plates, 30 °C
[4] = target: ASC^CARD D143A/E144A (Y2H construct) (human) (UniProt Q9ULZ3); experiment: as above
[5] = target: human-derived CASP9^CARD (human) (UniProt P55211); experiment: as above

Sequences of proteins named here, by UniProt entry; tags and fusion partners are left off. A change or cut given only in a name is not applied to a line headed by its entry. A line that says so, or that is headed by a name, gives the form on record, which may keep a tag or linker. Residues count along the entry.
UniProt Q9ULZ3: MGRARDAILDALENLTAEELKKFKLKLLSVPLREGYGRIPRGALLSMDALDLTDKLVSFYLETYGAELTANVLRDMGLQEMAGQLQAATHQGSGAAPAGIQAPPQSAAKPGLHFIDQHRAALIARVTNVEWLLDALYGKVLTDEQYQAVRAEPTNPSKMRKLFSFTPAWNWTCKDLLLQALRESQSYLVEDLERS
ASC^CARD (M2H fusion): residues 107-195 of Q9ULZ3
ASC^CARD N128A/E130R (Y2H construct) (Q9ULZ3, form named): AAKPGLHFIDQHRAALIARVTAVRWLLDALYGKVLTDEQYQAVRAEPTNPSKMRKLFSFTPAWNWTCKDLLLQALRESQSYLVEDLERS
ASC^CARD D143A/E144A (Y2H construct) (Q9ULZ3, form named): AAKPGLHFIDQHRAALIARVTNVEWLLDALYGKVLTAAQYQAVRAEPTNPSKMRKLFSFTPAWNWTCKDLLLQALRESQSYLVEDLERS
UniProt P55211, residues 1-92: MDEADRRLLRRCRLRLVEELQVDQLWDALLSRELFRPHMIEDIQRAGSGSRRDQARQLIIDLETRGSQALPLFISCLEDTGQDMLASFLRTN

- binding [1]: binds
B1: wild-type full-length NLRP1 (M2H fusion) (protein, UniProt Q9C000-1 1-1473)
chain: MAGGAWGRLACYLEFLKKEELKEFQLLLANKAHSRSSSGETPAQPEKTSGMEVASYLVAQYGEQRAWDLALHTWEQMGLRSLCAQAQEGAGHSPSFPYSPSEPHLGSPSQPTSTAVLMPWIHELPAGCTQGSERRVLRQLPDTSGRRWREISASLLYQALPSSPDHESPSQESPNAPTSTAVLGSWGSPPQPSLAPREQEAPGTQWPLDETSGIYYTEIREREREKSEKGRPPWAAVVGTPPQAHTSLQPHHHPWEPSVRESLCSTWPWKNEDFNQKFTQLLLLQRPHPRSQDPLVKRSWPDYVEENRGHLIEIRDLFGPGLDTQEPRIVILQGAAGIGKSTLARQVKEAWGRGQLYGDRFQHVFYFSCRELAQSKVVSLAELIGKDGTATPAPIRQILSRPERLLFILDGVDEPGWVLQEPSSELCLHWSQPQPADALLGSLLGKTILPEASFLITARTTALQNLIPSLEQARWVEVLGFSESSRKEYFYRYFTDERQAIRAFRLVKSNKELWALCLVPWVSWLACTCLMQQMKRKEKLTLTSKTTTTLCLHYLAQALQAQPLGPQLRDLCSLAAEGIWQKKTLFSPDDLRKHGLDGAIISTFLKMGILQEHPIPLSYSFIHLCFQEFFAAMSYVLEDEKGRGKHSNCIIDLEKTLEAYGIHGLFGASTTRFLLGLLSDEGEREMENIFHCRLSQGRNLMQWVPSLQLLLQPHSLESLHCLYETRNKTFLTQVMAHFEEMGMCVETDMELLVCTFCIKFSRHVKKLQLIEGRQHRSTWSPTMVVLFRWVPVTDAYWQILFSVLKVTRNLKELDLSGNSLSHSAVKSLCKTLRRPRCLLETLRLAGCGLTAEDCKDLAFGLRANQTLTELDLSFNVLTDAGAKHLCQRLRQPSCKLQRLQLVSCGLTSDCCQDLASVLSASPSLKELDLQQNNLDDVGVRLLCEGLRHPACKLIRLGLDQTTLSDEMRQELRALEQEKPQLLIFSRRKPSVMTPTEGLDTGEMSNSTSSLKRQRLGSERAASHVAQANLKLLDVSKIFPIAEIAEESSPEVVPVELLCVPSPASQGDLHTKPLGTDDDFWGPTGPVATEVVDKEKNLYRVHFPVAGSYRWPNTGLCFVMREAVTVEIEFCVWDQFLGEINPQHSWMVAGPLLDIKAEPGAVEAVHLPHFVALQGGHVDTSLFQMAHFKEEGMLLEKPARVELHHIVLENPSFSPLGVLLKMIHNALRFIPVTSVVLLYHRVHPEEVTFHLYLIPSDCSIRKAIDDLEMKFQFVRIHKPPPLTPLYMGCRYTVSGSGSGMLEILPKELELCYRSPGEDQLFSEFYVGHLGSGIRLQVKDKKDETLVWEALVKPGDLMPATTLIPPARIAVPSPLDAPQLLHFVDQYREQLIARVTSVEVVLDKLHGQVLSQEQYERVLAENTRPSQMRKLFSLSQSWDRKCKDGLYQALKETHPHLIMELWEKGSKKGLLPLSS

- binding [2]: binds
B2: NLRP1^CARD (M2H fusion) (domain or fragment, UniProt Q9C000-1 1374-1463)
chain: DAPQLLHFVDQYREQLIARVTSVEVVLDKLHGQVLSQEQYERVLAENTRPSQMRKLFSLSQSWDRKCKDGLYQALKETHPHLIMELWEKG

- binding [3]: no binding
- binding [4]: no binding
- binding [5]: no binding
B3: GAL4 activation domain (AD)-NLRP1^CARD fusion (domain or fragment, UniProt Q9C000-1 1374-1463)
chain: B2 chain

From PMC7801473 (2021)
